Results from PubChem BioAssay AID504339 (National Center for Advancing Translational Sciences (NCATS), 2011).
The whole screen tested about 390,000 compounds, of which about 17,000 (4.4%) were called active. Inconclusive results, whose numbers are uncertain, are shown with a selection of clear calls. Calls follow the shape of the dose curve; as a rule, active = well fitted inhibition curve with a large enough effect; inconclusive = small, poorly fitted or top-dose-only effect; inactive = no such curve, though single readings can be large or run the other way. Potencies beside an inconclusive call are fits to weak or partial responses and may not hold up.

Target: Lysine-specific demethylase 4A (Homo sapiens) (UniProt O75164)
Test: qHTS Assay for Inhibitors of JMJD2A-Tudor Domain; also: nearly all actives have a fitted effect of over 50% in size
Conditions: AlphaScreen JMJD2A-Tudor / H3K4me3 peptide binding; series mostly up to 114 µM
Potency is read from the fitted curve at half-maximal effect; tags tell the direction and shape of the fitted curve.

Chain of UniProt O75164 (O75164 whole entry, looked up, the tested form may be a part): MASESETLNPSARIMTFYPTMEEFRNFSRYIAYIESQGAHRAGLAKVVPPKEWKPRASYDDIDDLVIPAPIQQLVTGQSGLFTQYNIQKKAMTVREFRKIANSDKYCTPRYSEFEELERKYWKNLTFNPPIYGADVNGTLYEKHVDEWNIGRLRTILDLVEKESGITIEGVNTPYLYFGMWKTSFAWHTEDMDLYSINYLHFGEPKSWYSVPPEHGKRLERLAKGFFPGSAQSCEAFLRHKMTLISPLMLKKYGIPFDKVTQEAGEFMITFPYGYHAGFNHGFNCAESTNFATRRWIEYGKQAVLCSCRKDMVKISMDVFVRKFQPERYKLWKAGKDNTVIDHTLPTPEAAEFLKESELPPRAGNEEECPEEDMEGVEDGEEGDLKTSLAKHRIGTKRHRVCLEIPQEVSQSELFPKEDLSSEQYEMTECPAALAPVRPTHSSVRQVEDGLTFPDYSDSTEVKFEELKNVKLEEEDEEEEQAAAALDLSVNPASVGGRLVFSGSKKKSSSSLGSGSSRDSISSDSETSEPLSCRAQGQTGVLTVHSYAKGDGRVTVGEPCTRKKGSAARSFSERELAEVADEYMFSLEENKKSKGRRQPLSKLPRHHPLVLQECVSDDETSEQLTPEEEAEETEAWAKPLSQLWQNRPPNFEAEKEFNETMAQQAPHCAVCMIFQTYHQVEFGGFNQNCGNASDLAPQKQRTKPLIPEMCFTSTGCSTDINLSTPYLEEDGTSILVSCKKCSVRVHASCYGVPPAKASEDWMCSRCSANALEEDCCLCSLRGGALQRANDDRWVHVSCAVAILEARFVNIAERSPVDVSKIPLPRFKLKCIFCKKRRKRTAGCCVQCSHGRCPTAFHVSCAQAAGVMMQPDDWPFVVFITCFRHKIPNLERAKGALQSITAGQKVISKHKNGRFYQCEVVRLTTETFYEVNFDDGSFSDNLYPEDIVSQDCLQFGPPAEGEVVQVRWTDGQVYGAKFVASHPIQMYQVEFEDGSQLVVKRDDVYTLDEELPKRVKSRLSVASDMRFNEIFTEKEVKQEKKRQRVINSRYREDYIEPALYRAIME

Row | SMILES | Potency
1 | O=C(COC(=O)C1(c2ccccc2)CC1)N1CCN(c2ccc(F)cc2)CC1 | inconclusive: 56.2 µM [inhibitor, partial curve]
2 | N=C1/C(=C\c2ccc(SCc3ccco3)o2)C(=O)N=C2SC=NN12 | inconclusive: 50.1 µM [inhibitor, partial curve]
3 | N=c1n(CCN2CCOCC2)c2ccccc2n1CC(=O)c1ccc(Cl)c(Cl)c1 | inconclusive: 89.1 µM [inhibitor, partial curve, poor fit]
4 | NC(=O)CC(NC(=O)Cc1cccc2ccccc12)c1ccc(NCCCN2CCCC2=O)c([N+](=O)[O-])c1 (stereo not drawn) | inactive
5 | COC(=O)[C@@]12CCCN1[C@H](c1ccc(-c3ccc4c(c3)OCO4)c(OC)c1)[C@H]1C(=O)N(C)C(=O)[C@H]12 | inconclusive: 56.2 µM [inhibitor, partial curve]
6 | Cc1ccc(/C=c2\sc3nc(-c4ccccc4Br)nn3c2=O)o1 | active: 50.1 µM
7 | CC(=O)C1=C(c2ccc(F)cc2)N(C(C)=O)n2c(nnc2C2CCCCC2)S1 | inactive
8 | Cn1c(SCC(=O)c2cc(Cl)c(Cl)s2)nnc1-c1ccco1 | inconclusive: 39.8 µM [inhibitor, full curve, poor fit]
9 | O=[S+]1([O-])N=C(Oc2cccnc2)c2ccccc21 | inactive
10 | Cc1ccccc1N=Cc1cc2c(cc1[N+](=O)[O-])OCO2 | inconclusive: 44.7 µM [inhibitor, partial curve]
11 | COc1ccc(CNc2nc3c(c(=O)n(Cc4ccc(Br)cc4)c(=O)n3C)n2C)cc1 | inconclusive: 15.8 µM [inhibitor, full curve]
12 | Cc1ccc(-c2n[nH]c(=O)c3ccccc23)cc1S(=O)(=O)Nc1ccc(F)cc1 | inactive
13 | COc1ccc([N+](=O)[O-])cc1/C=N/Nc1nc(N2CCCCC2)nc(N2CCCCC2)n1 | inconclusive: 25.1 µM [inhibitor, full curve, poor fit]
14 | C=CCn1c(O)c(/C=C2\C=NN=C2c2ccccc2)sc1=S | inconclusive: 7.94 µM [inhibitor, full curve]
15 | Cc1ccc2nc(NNC(=O)c3ccc(S(=O)(=O)N4CCc5ccccc5C4)cc3)sc2c1 | inconclusive: 8.91 µM [inhibitor, full curve, poor fit]
16 | O=C1/C(=C/c2cccnc2)SC(=S)N1Cc1ccco1 | inconclusive: 15.8 µM [inhibitor, full curve]
17 | Nc1ccc(Oc2ccccc2-c2ccccc2)cc1 | active: 50.1 µM
18 | COc1cc(/C=C/C(=O)OCC(=O)Nc2sc3c(c2C#N)CCC(C)C3)ccc1OCC#N (stereo not drawn) | inconclusive: 8.91 µM [inhibitor, full curve, poor fit]
19 | CCCn1c(=O)c(C(=O)c2ccccc2)nc2ccccc21 | inconclusive: 112 µM [inhibitor, partial curve, poor fit]
20 | COCc1cc(CN2CCN(C)CC2)c(O)c2ncccc12 | active: 7.94 µM
21 | CCc1oc(C(=O)O)cc1COC | inconclusive: 31.6 µM [inhibitor, full curve, poor fit]
22 | COC(=O)C(C)Oc1cc(OC(C)C(=O)OC)c2c(C)c(Cl)c(=O)oc2c1 (stereo not drawn) | inactive
23 | C#CCN1C(=O)S/C(=C/C=C/c2ccc(N(C)C)cc2)C1=O | active: 25.1 µM

Row | SMILES | Potency
24 | Cn1cccc1Cc1nnc(SCC(=O)Nc2ccccc2F)n1CCc1ccccc1 | inconclusive: 50.1 µM [inhibitor, partial curve]
25 | Cn1c(SCc2c(F)cccc2Cl)nc2c(c1=O)SCC2 | inconclusive: 44.7 µM [inhibitor, partial curve]
26 | N#C/C(=C(/O)c1ccc([N+](=O)[O-])cc1)c1nnc2n1CCCCC2 | active: 28.2 µM
27 | COc1ccc(-c2nc3ccccn3c2Nc2ccccc2C)cc1 | active: 56.2 µM
28 | Cc1ccc2c(c1)N(C)/C(=C/c1cccc[n+]1C)S2 | inconclusive: 22.4 µM [inhibitor, partial curve]
29 | CCOc1ccccc1CN1CCc2nc(N3CCN(C)CC3)ncc2C1 | inactive
30 | O=[N+]([O-])c1ccc(/C=C2\CCC(C3=CCCC3)=C2N2CCOCC2)cc1 | inconclusive: 14.1 µM [inhibitor, full curve, poor fit]
31 | C#CCOCCOCCOCCNc1nc(N2CCN(C(=O)CCCCCCCCCCNC(=O)Cn3cc(CCCCCN)nn3)CC2)nc(N2CCN(C(=O)CCCCCCCCCCNC(=O)[C@@H](CCC(=O)O)n3cc(CCCCCN)nn3)CC2)n1 | inconclusive: 25.1 µM [inhibitor, single point]
32 | O=C(Nc1ccccn1)c1cccs1 | inconclusive: 3.55 µM [inhibitor, single point]
33 | Cc1ccc(CNC(=O)Nc2ccccc2)n1C | inactive
34 | COc1ccc(-n2cc(C(=O)N(C)c3cc(C)ccc3OC)c3ccccc3c2=O)cc1 | inactive
35 | CN(C)c1ccc(N/C=C/C(=O)c2ccco2)cc1 | inconclusive: 35.5 µM [inhibitor, partial curve]
36 | CC1(C)CC2CC(C)(CN2/C=N/c2sc3c(c2C#N)CC(C)(C)NC3(C)C)C1 (stereo not drawn) | inconclusive: 50.1 µM [inhibitor, partial curve]
37 | COc1cccc(C2c3c(ncn(Cc4cccs4)c3=N)Oc3ccc4ccccc4c32)c1 (stereo not drawn) | inconclusive: 39.8 µM [inhibitor, partial curve]
38 | CCOC(=O)C1C(=O)NC(SCC(N)=O)=C(C#N)C1c1ccccc1OCC (stereo not drawn) | inconclusive: 89.1 µM [inhibitor, single point]
39 | CC(C)c1ccc(NC2CCCN(C(=O)c3ccsc3)C2)cc1 (stereo not drawn) | inconclusive: 22.4 µM [inhibitor, full curve]
40 | CN(C)CCN(Cc1ccccc1)S(=O)(=O)c1ccc(-c2cc(C(F)(F)F)on2)s1 | inconclusive: 56.2 µM [inhibitor, partial curve]
41 | Cc1ccc(Nc2ncnc3c2cnn3-c2ccc(C)cc2)cc1 | inconclusive: 100 µM [inhibitor, single point]
42 | CCn1c(P(C)(=O)O)nc2cc(NC(=O)c3ccccc3Cl)ccc21 | inconclusive: 25.1 µM [inhibitor, partial curve]
43 | CC(=O)c1cccc2c(O)c(C3=Nc4ccccc4C3=O)[nH]c12 | active: 44.7 µM
44 | CCOc1ccccc1NC(=O)CSc1ccc2nnc(CCNS(=O)(=O)c3ccccc3)n2n1 | inconclusive: 89.1 µM [inhibitor, single point]
45 | O=c1[nH]c2ccccc2c(O)c1SCCO | active: 22.4 µM
46 | COc1ccc(-c2csc(N3CCC(C(N)=O)(N4CCCCC4)CC3)n2)cc1 | inconclusive: 44.7 µM [inhibitor, partial curve]

Row | SMILES | Potency
47 | C[C@]12c3[nH]c4cc(-c5ccco5)ccc4c3CCN1C(=O)[C@@H](CC(=O)NCc1cccc(C(F)(F)F)c1)C[C@@H]2C(=O)N1CCCCC1 | inconclusive: 20 µM [inhibitor, full curve]
48 | O=C1C(=O)C(c2ccc(O)cc2O)Oc2cc(O)cc(O)c21 (stereo not drawn) | active: 14.1 µM
49 | O=C(CN1CCN(S(=O)(=O)/C=C/c2ccccc2)CC1)Nc1ccc(N2CCOCC2)cc1 | inconclusive: 56.2 µM [inhibitor, partial curve, poor fit]
50 | Cc1ccc(C2(C)NC(=O)N(CC(=O)Nc3ccccc3N3CCCC3)C2=O)cc1 (stereo not drawn) | inconclusive: 50.1 µM [inhibitor, partial curve]
51 | OCCN(Cc1ccccc1)Cc1cccc(C(F)(F)F)c1 | active: 7.94 µM
52 | Cc1ccc(NC(=O)CNC(=O)N2CC(=O)Nc3ccccc32)cc1F | inconclusive: 12.6 µM [inhibitor, partial curve, poor fit]
53 | C/C=C/c1ccc(OCCCCNCc2ccco2)c(OC)c1 | active: 22.4 µM
54 | Cc1ccc(NC(=O)N/C=C/c2ccco2)cc1C | inconclusive: 79.4 µM [inhibitor, partial curve]
55 | Cc1ccc(S(=O)(=O)c2cc3ccccc3oc2=Nc2ccc3c(c2)OCCO3)cc1 | inconclusive: 7.08 µM [inhibitor, partial curve]
56 | Cc1ccc(NC(=S)N(CCCN2CCC(C)CC2)Cc2ccco2)cc1 | inactive
57 | CCOC(=O)c1[nH]cc(-c2ccccc2)c1N1CCOCC1 | inconclusive: 79.4 µM [inhibitor, partial curve]
58 | CCOC(=O)C1=C(O)/C(=C/c2ccc(-c3ccccc3C(=O)O)o2)SC1=Nc1ccc(C)cc1 | active: 50.1 µM
59 | O=C(Nc1cccc(C(=O)O)c1)/C(=C\c1ccco1)NC(=O)c1ccccc1Cl | inconclusive: 79.4 µM [inhibitor, single point]
60 | CC(=O)Nc1ccn(-c2ccccc2)n1 | inconclusive: 39.8 µM [inhibitor, single point]
61 | CCC(C)(C)n1nnnc1C(c1cc2ccc(C)cc2[nH]c1=O)N(Cc1cccnc1)Cc1ccco1 (stereo not drawn) | inconclusive: 56.2 µM [inhibitor, partial curve]
62 | C[C@@H](NC(=O)c1nc[nH]c1C(=O)NCC(=O)OC(C)(C)C)c1ccccc1 | inactive
63 | O=C(O)CCCCCNc1nc(=S)[nH]c2ccccc12 | active: 22.4 µM
64 | Cc1sc(-c2ccncc2)nc1OC(=O)c1ccc(Cl)cc1 | inconclusive: 89.1 µM [inhibitor, single point]
65 | COc1ccc(Cl)cc1NC(=O)CSc1nc(-c2ccccc2)cc(=O)[nH]1 | inactive
66 | CC(C)(C)OC(=O)NS(=O)(=O)NCc1ccco1 | inactive
67 | Cc1ccc(NC(=O)CCCN2C(=O)c3cccc4cccc(c34)C2=O)cc1 | active: 79.4 µM
68 | COC(=O)c1ccc2c(=O)n(Cc3ccco3)c(SCC(=O)Nc3cc(C)on3)nc2c1 | inactive
